Laboratory results: PubChem BioAssay AID2676 (National Center for Advancing Translational Sciences (NCATS), 2010)
Several values for one entry are separate records, joined by “and”; a condition that tells them apart may be missing. Equal entries are not always repeated. The whole screen tested about 370,000 compounds, of which about 1,100 (0.3%) were called active. The shares of active, inactive and inconclusive entries below differ from those in the screen. The call rests on the fitted dose curve; in most records, active means well fitted activation curve with a large enough effect; inconclusive means small, poorly fitted or top-dose-only effect; inactive means flat fitted curve, though single readings scatter. Where the call is inconclusive, the potency comes from a doubtful curve fit.

These molecules were tested against Relaxin receptor 1 (Homo sapiens) (UniProt Q9HBX9) (assay: qHTS Assay for Agonists of the Relaxin Receptor RXFP1). Conditions: HEK293T-RXFP1 cAMP TR-FRET, 30 min; series mostly up to 57.5 µM.
Sequence of UniProt Q9HBX9 (Q9HBX9 whole entry, looked up): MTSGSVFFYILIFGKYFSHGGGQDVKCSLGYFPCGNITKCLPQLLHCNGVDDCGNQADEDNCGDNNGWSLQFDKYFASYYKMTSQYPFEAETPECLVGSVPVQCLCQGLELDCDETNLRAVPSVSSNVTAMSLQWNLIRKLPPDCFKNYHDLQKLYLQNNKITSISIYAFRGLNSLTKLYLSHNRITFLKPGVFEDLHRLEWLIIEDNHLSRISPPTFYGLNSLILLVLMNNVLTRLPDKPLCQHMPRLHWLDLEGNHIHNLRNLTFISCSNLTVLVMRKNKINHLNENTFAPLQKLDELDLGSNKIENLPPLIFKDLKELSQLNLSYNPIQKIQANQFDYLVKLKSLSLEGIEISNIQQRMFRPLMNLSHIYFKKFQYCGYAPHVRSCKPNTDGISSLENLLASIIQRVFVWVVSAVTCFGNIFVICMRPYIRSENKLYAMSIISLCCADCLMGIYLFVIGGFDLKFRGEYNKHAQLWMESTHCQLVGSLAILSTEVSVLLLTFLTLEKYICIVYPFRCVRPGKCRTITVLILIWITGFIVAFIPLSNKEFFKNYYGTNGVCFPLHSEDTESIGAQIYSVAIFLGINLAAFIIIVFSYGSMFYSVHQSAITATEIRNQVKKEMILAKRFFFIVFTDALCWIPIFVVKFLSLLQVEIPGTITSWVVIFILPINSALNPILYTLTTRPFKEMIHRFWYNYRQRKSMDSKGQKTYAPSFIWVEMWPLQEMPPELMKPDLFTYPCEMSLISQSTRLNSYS
In short: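 HEK293T cells stably expressing RXFP1 were pretreated with the PDE4 inhibitor Ro 20174, exposed to compounds for 30 min at 37C, lysed, and cAMP was read by TR-FRET. Data normalized to buffer (basal) and 29 nM porcine relaxin (100%).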
Further: nearly all actives have a fitted effect of over 60% in size.
Potency means the concentration at half of the fitted maximal effect; tags describe the fitted curve by direction and shape.

Structure (SMILES) | Potency
Cc1ccc(Cl)cc1NC(=O)CN(C)S(=O)(=O)c1ccc2c(c1)n(C)c(=O)c(=O)n2C | inconclusive: 35.5 µM [activator, single point]
CSCCC(NS(=O)(=O)c1ccc2c(c1)c(=O)n(C)c(=O)n2C)C(=O)NC1CCN(Cc2ccccc2)CC1 (stereo unspecified) | active: 17.8 µM
COc1ccc(-c2cc(=O)c3cc(OC)ccc3o2)cc1 | inconclusive: 31.6 µM [activator, single point]
Cc1ccc(C)c(NC(=O)C2CCCN(S(=O)(=O)c3ccc4[nH]c(=O)ccc4c3)C2)c1 (stereo unspecified) | inconclusive: 31.6 µM [activator, single point]
COC(=O)c1ccc(/C=C/c2c(-c3ccsc3)oc3ccc(N4CCOCC4)cc23)cc1 | inconclusive: 31.6 µM [activator, partial curve]
O=C(CSc1n[nH]c(-c2ccccc2Cl)n1)N1CCN(c2ccccc2)CC1 | inactive
Cn1c(=O)c2c(ncn2Cc2ccccc2)n(C)c1=O | inconclusive: 17.8 µM [activator, partial curve]
CCOC(=O)N1CCN(S(=O)(=O)c2ccc(C(=O)Nc3sc4c(c3C(=O)OC)CCN(C)C4)cc2)CC1 | inactive
COc1cccc(CNC(=O)Cn2ncc3c4ccccc4n(Cc4ccccc4)c3c2=O)c1 | inconclusive: 35.5 µM [activator, single point]
CC(C)CCn1c(SCC#N)nc2c(sc3ccccc32)c1=O | inconclusive: 39.8 µM [activator, single point]
Cn1c(=O)c2c(ncn2CC(=O)Nc2cccc(C(F)(F)F)c2)n(C)c1=O | inconclusive: 20 µM [activator, partial curve]
COC(=O)c1ccc(CN2CCC(n3nccc3NC(=O)C3CC3)CC2)cc1 | inactive
COc1cccc(NC(=O)CSc2ncnc3c2oc2ccccc23)c1 | inconclusive: 39.8 µM [activator, single point]
O=c1nc2ccccn2c2ccc(S(=O)(=O)N3CCCCC3)cc12 | active: 20 µM
Cc1nc(C)c(-c2ccc(SCC(=O)Nc3ccc(F)c(F)c3)nn2)s1 | inconclusive: 15.8 µM [activator, partial curve]
COCCNC(=S)N(Cc1cc2cc(C)ccc2n2nnnc12)C1CCCC1 | inconclusive: 39.8 µM [activator, single point]
CCOc1cc(-c2nc3c(c(CC)nn3-c3ccccc3)c3cc(OC)c(OC)cc23)ccc1O | inconclusive: 28.2 µM [activator, partial curve]
COc1ccc(-c2cc3ccc(O)c(CN4CCOCC4)c3oc2=O)cc1 | inconclusive: 28.2 µM [activator, partial curve]
CC(=O)Nc1ccccc1-c1nn[nH]n1 | inactive
CCCn1c(=O)c2sccc2n2c(CCCC(=O)NCC3CCCO3)nnc12 (stereo unspecified) | inconclusive: 22.4 µM [activator, partial curve]
CCc1ccc(NC(=O)C2CCN(S(=O)(=O)c3ccc4[nH]c5c(c4c3)CCCCC5)CC2)cc1 | inactive
Cc1ccc(CNC(=O)C2CCN(c3nc4ccccc4n(C)c3=O)CC2)cc1 | inconclusive: 39.8 µM [activator, single point]

Structure (SMILES) | Potency
CCOC(=O)CSc1nc2c(sc3ccccc32)c(=O)n1CCc1ccccc1 | inconclusive: 39.8 µM [activator, single point]
Cc1ccc(C(=O)O)cc1Nc1nc2ccccc2n2nnnc12 | inactive
CCCS(=O)(=O)c1ncc(Cl)c(C(=O)Nc2ccc(S(=O)(=O)Nc3ncccn3)cc2)n1 | inconclusive: 25.1 µM [activator, partial curve]
CCOC(=O)C1(CCc2ccccc2)CCN(Cc2ccc(OC)cc2)CC1 | inactive
CCOc1ncccc1C(=O)OCC(=O)N1CCN(S(=O)(=O)c2ccc(Cl)cc2)CC1 | inactive
CCn1cc(S(=O)(=O)c2cc(C)cc(C)c2)c(=O)c2cc(F)c(N3CCCC3)cc21 | inconclusive: 39.8 µM [activator, single point]
CC1CCCCC1NC(=O)c1cc2c(=O)n3ccccc3nc2n1C (stereo unspecified) | inconclusive: 22.4 µM [activator, partial curve]
CCC(C)[C@H]1CNCCN1CC1(c2ccccc2)CC1 (stereo partly specified) | inactive
CCOc1ccccc1NC(=O)CSc1nc(N)c(C#N)cc1C#N | inconclusive: 35.5 µM [activator, single point]
CC(C)Cc1nc(SCC(=O)N2CCOCC2)c2c(=O)n(C)c(=O)n(C)c2n1 | inconclusive: 25.1 µM [activator, partial curve]
COc1ccc(-n2ncc3c(NCc4ccc5c(c4)OCO5)ncnc32)cc1 | inconclusive: 35.5 µM [activator, single point]
O=C(Cc1ccc(Cl)cc1)Nc1ccc2nn(-c3ccc(Cl)cc3)nc2c1 | inconclusive: 28.2 µM [activator, partial curve]
CCCn1c(SCC(=O)NC2CCCC2)nc2c1c(=O)n(C)c(=O)n2C | inconclusive: 28.2 µM [activator, partial curve]
N#Cc1c(NC(NC(=O)c2ccco2)C(=O)c2ccccc2)sc2c1CCCC2 (stereo unspecified) | inactive
COc1ccc(NC(=O)Cn2c(=O)n(-c3ccc(OC)c(OC)c3)c(=O)c3ccccc32)cc1 | inconclusive: 28.2 µM [activator, partial curve]
Cc1nc(SCC(=O)NCc2ccccc2)c2oc3ccccc3c2n1 | inconclusive: 39.8 µM [activator, single point]
CC(C)c1ccc(NC(=O)C2CCCN(S(=O)(=O)c3cccc4cccnc34)C2)cc1 (stereo unspecified) | inactive
N#Cc1cc2cc3c(cc2nc1SCC(=O)N1CCOCC1)OCO3 | inconclusive: 35.5 µM [activator, single point]
CC(=O)Nc1cccc(-c2nnc(-c3ccc(C)cc3)o2)c1 | inconclusive: 31.6 µM [activator, single point]
CCOC(=O)c1c(NC(=O)COc2ccccc2C#N)sc2c1CC(C)(C)NC2(C)C | inconclusive: 35.5 µM [activator, single point]
COc1cc(CNCCO)cc(Cl)c1OCc1ccc(Cl)cc1Cl | inactive
CCn1c(=O)c2sccc2n2c(CCCC(=O)NCc3cccnc3)nnc12 | active: 17.8 µM

Structure (SMILES) | Potency
Nc1ccc(C2CCCc3nonc32)c2nonc12 (stereo unspecified) | inactive
CCN(CC)C(=O)CSc1nc(N)c(C#N)c(-c2cccs2)c1C#N | inconclusive: 39.8 µM [activator, single point]
O=C(O)C1CCC(Cn2c(SCc3cc(=O)n4ccccc4n3)nc3ccsc3c2=O)CC1 (stereo unspecified) | inconclusive: 17.8 µM [activator, partial curve]
CCOc1ccc(/C(O)=C2\C(=O)C(=O)N(c3cc(C)on3)C2c2ccccc2OC)cc1 (stereo unspecified) | inconclusive: 17.8 µM [activator, partial curve]
Cc1ccc2nc(Cl)c3cc(C(=O)NC4CCCCC4)sc3c2c1 | inconclusive: 39.8 µM [activator, single point]
CCc1ccc(OCC(=O)Nc2c(C(=O)c3ccccc3)oc3ccccc23)cc1 | inconclusive: 35.5 µM [activator, partial curve]
Cc1nn(-c2ccccc2Cl)c2sc(C(=O)Nc3nnc(C4CC4)s3)cc12 | inconclusive: 35.5 µM [activator, single point]
Cc1ccc(-n2nc3c(N4CCC(C(=O)N(C)Cc5ccccc5)CC4)nnc(C)c3c2C)cc1 | inconclusive: 35.5 µM [activator, single point]
COCCn1c(=NC(=O)c2ccc3c(c2)OCCO3)sc2cc(NC(C)=O)ccc21 | inconclusive: 39.8 µM [activator, single point]
CCOC(=O)c1noc2ncn(Cc3cccc(C#N)c3)c(=O)c12 | inconclusive: 15.8 µM [activator, partial curve]
O=C(O)c1ccc(N2C(=O)c3cccc4c(C(=O)O)ccc(c34)C2=O)cc1 | inconclusive: 28.2 µM [activator, partial curve]
CCc1nc(SCC(=O)Nc2ccc3c(c2)OCCO3)c2oc3ccccc3c2n1 | inconclusive: 31.6 µM [activator, partial curve]
O=C(CCCn1c(=S)[nH]c2cc3c(cc2c1=O)OCO3)NCc1ccccc1Cl | inconclusive: 28.2 µM [activator, single point]
Cc1cccc(-n2ncc(C(=O)N3CCN(Cc4ccccc4)CC3)c2C2CCN(C(=O)OC(C)(C)C)CC2)c1 | inactive
COCCNC(=O)c1ccc(CN2CCOCC2)cc1 | inactive
Cc1cccc(C)c1NC(=O)C(=O)NCC(c1ccc2c(c1)OCO2)N1CCOCC1 (stereo unspecified) | inactive
CSc1nc(SCC(=O)NCC2CCCO2)c2c3c(sc2n1)CN(C)CC3 (stereo unspecified) | inconclusive: 22.4 µM [activator, single point]
Cc1onc(-c2ccccc2)c1C(=O)Nc1nc(-c2cc(F)ccc2F)cs1 | inconclusive: 31.6 µM [activator, single point]
COc1ccccc1/C=C/c1nc(C#N)c(N2CCN(C)CC2)o1 | inactive
CCc1ccccc1NC(=O)Cn1c(=O)n(CCCCCC(=O)NCc2ccc(C)cc2)c(=O)c2sccc21 | inconclusive: 35.5 µM [activator, single point]
COc1ccc(-c2cc3ccc(OC(C)C(=O)O)cc3oc2=O)cc1 (stereo unspecified) | inconclusive: 22.4 µM [activator, partial curve]
CCc1ccc(NC(=O)C2CCCN2S(=O)(=O)c2ccc3c(c2)n(C)c(=O)c(=O)n3C)cc1 (stereo unspecified) | inconclusive: 31.6 µM [activator, single point] and inconclusive: 39.8 µM [activator, single point]
